{"source": "PubChem BioAssay AID445", "about": "(National Center for Advancing Translational Sciences (NCATS), 2006)", "note": "About 40 (0.04%) of roughly 110,000 compounds were called active. This list was built around the results that the source calls inconclusive (neither active nor inactive); the mix of calls is not that of the screen. The call rests on the fitted dose curve; in most records, active means well fitted curve in the direction sought with a large enough effect in the signal ratio (not every such curve was filed as active); inconclusive means small, poorly fitted or top-dose-only effect, or a change in a side signal; inactive means flat fitted curve, though single readings scatter; the % refers to the signal ratio. Potencies of inconclusive entries are doubtful fits and often do not repeat. Potency means the concentration at half of the fitted maximal effect.", "data": [{"assay": "IkB Signaling;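 on IkBa stabilization activation: 0% = basal untreated cells and 100% = reference inhibitor full response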", "settings": "ABC-DLBCL IkBa-CBG/CBR dual luciferase ratio (green luciferase fused to IkBa over red control in OCI-Ly3 lymphoma cells), 4 h; IkBa stabilization activation: at 57.1 µM (top of the series), scaled: untreated 0%, proteasome inhibitor 100% unless noted", "in_short": "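Luminescence ratio of IκBα-fused green versus native red beetle luciferase in OCI-Ly3 cells, 4 h post-doxycycline with compound; red signal alone, scaled from basal (0%) to zero light (-100%), flagged nonspecific or cytotoxic effects.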", "values": [{"smiles": "CCOC(=O)c1ccc(NC(=O)c2ccc(=O)n(Cc3cccc(C)c3)c2)cc1", "IkBa stabilization activation": "inconclusive: 0.282% [signal inhibitor]"}, {"smiles": "Nc1nc(CSc2nc3ccccc3s2)nc(N2CCCCC2)n1", "IkBa stabilization activation": "inactive: 3.81%"}, {"smiles": "O=C(NCCOCCn1c(=O)oc2ccccc21)Nc1ccc(F)cc1", "IkBa stabilization activation": "inconclusive: 0.164% [signal inhibitor]"}, {"smiles": "O=C(NCCN1CCOCC1)c1cc2ccccc2o1", "IkBa stabilization activation": "inactive: -3.11%"}, {"smiles": "CC(C)N(Cc1ccccc1)C(=O)CCS(=O)(=O)c1ccc2c(c1)oc(=O)n2C", "IkBa stabilization activation": "inconclusive: -0.247% [signal inhibitor]"}, {"smiles": "Cc1cc(/N=C/C=C2\\N(C)c3ccccc3C2(C)C)n(CCC#N)n1", "IkBa stabilization activation": "inconclusive: 5.96% [signal inhibitor]"}, {"smiles": "Cc1ccc(Cn2c(C)c(CNCCCc3ccccc3)c(C(=O)O)c2C)cc1", "IkBa stabilization activation": "inconclusive: 2.71% [signal inhibitor]"}, {"smiles": "CC1CCN(S(=O)(=O)c2ccc3c(c2)CCC(=O)N3CC(=O)Nc2cccc(C#N)c2)CC1", "IkBa stabilization activation": "inactive: 1.23%"}, {"smiles": "CCCCNC(=O)CSc1nnc(C)c2c(C)n(-c3ccccc3)nc12", "IkBa stabilization activation": "inconclusive: 2.75% [signal inhibitor]"}, {"smiles": "COc1ccc2c(c1)c1ncnc(N3CCN(Cc4ccc5c(c4)OCO5)CC3)c1n2C", "IkBa stabilization activation": "inconclusive: -1.02% [signal inhibitor]"}, {"smiles": "CCC1CN(C(=O)N2CCC(C(=O)NCc3ccccc3C)CC2)c2ccccc2O1", "note": "(centres undefined)", "IkBa stabilization activation": "inconclusive: 1.16% [signal inhibitor]"}, {"smiles": "CC(C)OCCCNc1ncnc2c1[nH]c1ccccc12", "IkBa stabilization activation": "inconclusive: -1.93% [signal inhibitor]"}, {"smiles": "Cc1ccc(-c2cc3c(n2-c2ccc(C)cc2)CC(C)(C)CC3=O)cc1", "IkBa stabilization activation": "inconclusive: -0.156% [signal inhibitor]"}, {"smiles": "Cc1cc(=O)n2[nH]c(C)c(-c3ccccc3)c2n1", "IkBa stabilization activation": "inconclusive: 0.776% [signal inhibitor]"}, {"smiles": "Cc1ccc(C2=NN(CC(=O)NCCN(CC(C)C)CC(C)C)C(=O)CC2)cc1", "IkBa stabilization activation": "inconclusive: 2.53% [signal inhibitor]"}, {"smiles": "COc1cccc(-c2ccc3ncnc(N(C)Cc4ccco4)c3c2)c1", "IkBa stabilization activation": "inactive: -2.5% [at 11.4 µM, scaled: untreated 0%, proteasome inhibitor 100%]"}, {"smiles": "N#CCCn1c(=O)c(CCc2ccccc2)nc2cnc(Oc3cccc(Cl)c3)nc21", "IkBa stabilization activation": "inactive: 1.55% [at 11.4 µM, scaled: untreated 0%, proteasome inhibitor 100%]"}, {"smiles": "O=C(Nc1cccc2c1CCCC2)c1ccc(Br)o1", "IkBa stabilization activation": "inactive: 1.2%"}, {"smiles": "Cn1cc(/C(Cc2ccccc2)=N\\O)c2ccccc21", "IkBa stabilization activation": "inactive: -1.34%"}, {"smiles": "Cc1cc(C(F)(F)F)c2c(=O)[nH]c(=O)n(Cc3ccccc3)c2n1", "IkBa stabilization activation": "inactive: 0.217%"}, {"smiles": "CC1CCC(O)([C@](C)(C(=O)O)c2ccccc2)CC1", "note": "(some centres undefined)", "IkBa stabilization activation": "inactive: 0.988% [at 11.4 µM, scaled: untreated 0%, proteasome inhibitor 100%]"}, {"smiles": "Cc1cccc(N(C)C(=O)CCNS(=O)(=O)c2ccc3c(c2)CCN3C(=O)C2CC2)c1", "IkBa stabilization activation": "inconclusive: 2.6% [signal inhibitor]"}, {"smiles": "COC(=O)CCn1cnc2onc(-c3cc(F)cc(F)c3)c2c1=O", "Potency": "inconclusive: 15.8 µM [signal inhibitor, partial curve]"}, {"smiles": "CC(C)Sc1ncc(Cl)c(C(=O)Nc2ccc(S(=O)(=O)N(C)c3ccccc3)cc2)n1", "IkBa stabilization activation": "inconclusive: 1.97% [signal inhibitor]"}, {"smiles": "O=C(CN1CCC(n2nnc3cc(F)ccc32)CC1)Nc1ccc2c(c1)CCC2", "IkBa stabilization activation": "inconclusive: 3.08% [signal inhibitor]"}, {"smiles": "O=C(Nc1c(C(=O)Nc2ccccc2F)oc2ccccc12)c1cc2ccccc2o1", "IkBa stabilization activation": "inconclusive: 11.3% [signal inhibitor]"}, {"smiles": "COc1cc(OC)c(C2N(c3ccc(Cl)cc3)C(=O)C3CCCN32)cc1OC", "note": "(centres undefined)", "IkBa stabilization activation": "inactive: -2.5%"}, {"smiles": "COc1cc(NC(=O)CN2CCN(CC(=O)Nc3ccc(F)cc3)CC2)cc(OC)c1", "IkBa stabilization activation": "inconclusive: 1.08% [signal inhibitor]"}, {"smiles": "COc1ccc(CNc2nc(-c3ccc4c(c3)OCO4)nc3ccccc23)c(OC)c1", "IkBa stabilization activation": "inactive: 0.574% [at 11.4 µM, scaled: untreated 0%, proteasome inhibitor 100%]"}, {"smiles": "Cc1ccc(-n2ncc3c(N4CCC(Cc5ccccc5)CC4)ncnc32)cc1", "IkBa stabilization activation": "inconclusive: -0.175% [signal inhibitor]"}, {"smiles": "Cc1ccc2c(c1)cc1c(=O)n(CC(=O)N3CCCCC3)nc(C)n12", "IkBa stabilization activation": "inconclusive: 2.63% [signal inhibitor]"}, {"smiles": "CN1/C(=C/C(=O)c2nc(S(C)(=O)=O)ncc2Cl)C(C)(C)c2ccccc21", "Potency": "inconclusive: 5.01 µM [signal inhibitor, single point]"}, {"smiles": "Cc1nnc(SCCn2c(N3CCCC(C)C3)nc3c2c(=O)n(C)c(=O)n3C)s1", "note": "(centres undefined)", "IkBa stabilization activation": "inactive: 2.51%"}, {"smiles": "CCc1ccc(C(=O)c2cn(CC(=O)Nc3ccc(C)c(C)c3)c3ccccc3c2=O)cc1", "IkBa stabilization activation": "inconclusive: 4.12% [signal inhibitor]"}]}]}
